Results published in PMC4336329 (PLoS ONE, 2015).
The campaign covered roughly 310,000 compounds. About 2,200 (0.71%) showed an effect of 50% or more. The effect is printed as a negative number. Some of the results follow.

These compounds were tested against human ether-à-go-go-related gene (hERG) potassium channel (human, UniProt Q12809) (assay: primary screen, population patch clamp on CHO cells stably expressing hERG).
Chain of human ether-à-go-go-related gene (hERG) potassium channel (Q12809 whole entry, looked up): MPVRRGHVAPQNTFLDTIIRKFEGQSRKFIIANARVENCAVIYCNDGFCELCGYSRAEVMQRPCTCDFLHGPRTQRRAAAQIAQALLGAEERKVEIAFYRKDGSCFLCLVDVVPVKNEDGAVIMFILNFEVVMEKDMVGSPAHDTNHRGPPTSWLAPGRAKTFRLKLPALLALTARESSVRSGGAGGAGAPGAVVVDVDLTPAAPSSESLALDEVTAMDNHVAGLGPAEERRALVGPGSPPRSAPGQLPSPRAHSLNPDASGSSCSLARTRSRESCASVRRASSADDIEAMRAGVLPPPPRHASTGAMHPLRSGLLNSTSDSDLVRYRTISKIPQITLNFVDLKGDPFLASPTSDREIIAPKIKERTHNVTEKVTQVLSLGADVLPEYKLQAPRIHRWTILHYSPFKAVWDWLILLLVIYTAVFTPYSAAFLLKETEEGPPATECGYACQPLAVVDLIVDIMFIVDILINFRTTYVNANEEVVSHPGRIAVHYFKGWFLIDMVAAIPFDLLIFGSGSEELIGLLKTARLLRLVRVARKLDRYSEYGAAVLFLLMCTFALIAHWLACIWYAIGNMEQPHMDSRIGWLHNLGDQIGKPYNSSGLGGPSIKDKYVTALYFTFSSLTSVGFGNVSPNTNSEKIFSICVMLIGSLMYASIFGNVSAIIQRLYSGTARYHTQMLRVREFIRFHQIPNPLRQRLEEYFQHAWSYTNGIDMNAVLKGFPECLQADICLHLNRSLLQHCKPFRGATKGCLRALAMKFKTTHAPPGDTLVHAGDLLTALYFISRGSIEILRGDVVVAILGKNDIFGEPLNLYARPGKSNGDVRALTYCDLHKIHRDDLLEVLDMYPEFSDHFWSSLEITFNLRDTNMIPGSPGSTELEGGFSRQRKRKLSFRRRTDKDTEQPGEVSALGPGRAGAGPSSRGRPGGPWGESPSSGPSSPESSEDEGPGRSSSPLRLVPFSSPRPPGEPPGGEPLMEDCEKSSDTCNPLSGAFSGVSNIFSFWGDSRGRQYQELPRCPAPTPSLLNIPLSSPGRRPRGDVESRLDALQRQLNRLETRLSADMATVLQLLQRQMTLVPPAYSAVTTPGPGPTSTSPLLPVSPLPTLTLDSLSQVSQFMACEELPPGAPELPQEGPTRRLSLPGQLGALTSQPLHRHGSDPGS

SMILES	hERG current change (%, negative = inhibition) at 1uM
Cc1cc(Nc2ccccc2)n(CCC#N)n1	8.23%
CC(Oc1ccc(Cl)cc1Cl)C(=O)N(C)c1ccccc1 (centres unmarked)	1.7%
CCCCn1c(SCC(=O)Nc2nnc(C(C)C)s2)nc2c1c(=O)n(C)c(=O)n2C	4.78%
CN(C)c1nc2c(c(=O)[nH]c(=O)n2C)n1Cc1ccccc1Br	8.32%
COc1ccc(-c2cc(C(=O)c3c(N)n(C)c(=O)n(C)c3=O)c3ccccc3n2)cc1OC	9.69%
COc1ccc(Cl)cc1NC(=O)C/C(C)=N/NC(=O)CC#N	7.26%
CCOC(=O)C1=C(c2ccccc2)NC(=S)NC1c1cccc([N+](=O)[O-])c1 (centres unmarked)	8.14%
Cn1c(=O)c2c(O)c(Cc3ccccc3)c(=O)n(C)c2n(C)c1=O	15.8%
Cc1cc(C)cc(NC(=O)C(c2ccccc2)N2CCN(CC(=O)NC3CC3)CC2)c1 (centres unmarked)	1.32%
COc1ccc(NC(=O)NCc2cccnc2)cc1	6.55%
CN(CC(=O)Nc1ccccc1C(F)(F)F)C(=O)Cn1c(=O)oc2ccccc21	7.4%
Cc1ccc(C)c(SCC(=O)NCc2ccco2)c1	6.59%
CCN(CC)C(=O)NC(c1ccc(C)c(F)c1)C(Cl)(Cl)Cl (centres unmarked)	11.6%
COc1ccccc1C(CCN(Cc1ccccc1)C(C)=O)c1ccco1 (centres unmarked)	6.77%
COc1cccc(CN2CCNC(=O)C2CC(=O)N(C)CC2CCOCC2)c1 (centres unmarked)	14.8%
Cc1cc(NC(=O)CCC(=O)N(CC(=O)NC2CCCC2)c2ccc(C)c(F)c2)no1	16%
COc1ccc(CCNC(=O)c2cccs2)cc1OC	30.7%
CC(c1ccccn1)N(C)C(=O)c1ccc2nc(Cc3ccccc3F)oc2c1 (centres unmarked)	14.8%
COc1cccc(OC)c1C(=O)Nc1cc(C)on1	10.6%
Cc1nn(-c2ccc(F)cc2)c(Cl)c1C(=O)OC(C)C(=O)N(C)C1CCCCC1 (centres unmarked)	0.754%
COC(=O)c1ccc(Sc2ccc(Cl)cc2)c(N)c1	3.06%
CC1=CC(C)(C)N(C(=O)CSc2nnc(-c3ccccc3)o2)c2ccc(C)cc21	10.9%

SMILES	hERG current change (%, negative = inhibition) at 1uM
Fc1ccc(CN2CCN(c3ncnc4scc(-c5ccccc5)c34)CC2)cc1	-5.01%
CCn1c(SCC(=O)Nc2cc(Cl)ccc2OC)nnc1C1CC1	12.8%
O=C1CC(c2ccco2)CC(O)=C1C=NCCN1CCN(C(=S)Nc2ccccc2)CC1 (centres unmarked)	-0.843%
O=C(Oc1ccc(Cl)cc1)c1ccc(COC(=O)c2cnccn2)cc1	13.7%
CCC(=O)N1c2ccccc2-c2nnc(SC)nc2OC1c1ccc(N(C)C)cc1 (centres unmarked)	10.9%
COc1ccc(CCNC(=O)c2cc3c(=O)n4ccccc4nc3n(CCCN3CCOCC3)c2=N)cc1OC	-39.4%
CCC(=O)Nc1ccc(C2=Nn3c(nnc3C(C)C)SC2)cc1.Cl	17.9%
COc1ccc(C2C(C#N)=C(N)SC(N)=C2C#N)cc1OC	10.2%
CCCCCCCNC(=O)C1(CC2CC(c3cccc(Br)c3)=NO2)CCN(C(=O)Cc2ccc(F)cc2)CC1 (centres unmarked)	5.8%
CCCN(CC(=O)c1cc(C)n(C)c1C)S(=O)(=O)c1cccc(C(F)(F)F)c1	1.52%
O=C(CN1CCCC1)NC(=O)NC1CCCC1	5.7%
CCN(CC)C(=O)c1cc(S(=O)(=O)N2CCCCC2)c[nH]1	15.2%
CC(C)OCCCN(CC(O)c1ccccc1)CC(O)c1ccccc1.O=C(O)C(=O)O (centres unmarked)	-0.211%
CN(c1ccc(C(=O)O)cc1)S(=O)(=O)c1ccc(Cl)cc1	8.08%
COC(=O)c1ccccc1NC(=O)Nc1ccc2c(c1)OCO2	7.67%
Cc1ccc(N2CC(C(=O)NCc3cccs3)CC2=O)cc1 (centres unmarked)	1.16%
COC(=O)C1=C(C(=O)OC)[C@@H]2N(C)c3ccccc3[C@@]23C[C@@H](C(=O)OC)N(C(=O)COCc2ccccc2)C3=N1	8.35%
Cc1ccc(NC(=O)c2ccccc2-c2ccc(C(F)(F)F)cc2)cc1S(=O)(=O)N1CCOCC1	8.12%
O=C(Nc1cccc(S(=O)(=O)N2CCOCC2)c1)c1cnn2c(C(F)F)cc(-c3ccccc3)nc12	16.4%
c1ccc(-c2nnc(N3CCN(c4ccccc4)CC3)nc2-c2ccccc2)cc1	7.67%
O=C(Nc1ccc2c(c1)OCO2)c1cc(-c2ccccc2Cl)on1	17.3%
CCN(CC)P(=O)(c1nccn1C)N(CC)CC	14.2%
